The other results are listed elsewhere or left out. At the low end of the ranking the order means little.
The sequences below were run against T1, GST-Rok (full length) (UniProt O34857) (assay: protein binding microarray). Conditions: Rok is a gene silencer of Bacillus subtilis; high values mean tight binding; most listed sequences are background and not binding sites; double strand, one strand shown.
T1 sequence: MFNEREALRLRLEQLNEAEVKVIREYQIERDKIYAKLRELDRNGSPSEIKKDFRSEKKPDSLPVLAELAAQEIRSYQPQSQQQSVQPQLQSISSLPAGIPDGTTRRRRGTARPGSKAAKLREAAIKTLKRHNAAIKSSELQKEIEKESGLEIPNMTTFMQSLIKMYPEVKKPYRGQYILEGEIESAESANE
CTTGAGCC was tested, and the binding signal was -0.343 E-score. Sequence AGCGGAGA has a binding signal of 0.0026 E-score. CGAGCCTA was tested, and the binding signal was -0.0473 E-score. CCAAACAC showed a binding signal of -0.0316 E-score. Work on AAGGGCCG yielded a binding signal of -0.216 E-score. CTAGCGAA was tested, and the binding signal was 0.165 E-score. With CATATTAC the binding signal was 0.289 E-score. In the case of TGGCCACA, the binding signal is reported as 0.0692 E-score. With AAGGGGAA the binding signal was -0.239 E-score. GTGTCCAA gave a binding signal of -0.212 E-score. GTGCATTA was tested, and the binding signal was 0.168 E-score. In the case of GGCTCCTA, the binding signal is reported as -0.222 E-score. In the case of GCACCCCA, the binding signal is reported as -0.291 E-score. ACGCTTCT gave a binding signal of -0.113 E-score. For CGTCAGAC, the binding signal was -0.227 E-score. For AAACACCG, the binding signal was -0.0206 E-score. In the case of AGCTCTTC, the binding signal is reported as -0.146 E-score. With CGAAATAA the binding signal was 0.201 E-score. In the case of ATATTGTA, the binding signal is reported as 0.375 E-score. In the case of CCGACAAG, the binding signal is reported as -0.204 E-score. With CCTCTAAC the binding signal was -0.0188 E-score. With GCAAACGC the binding signal was -0.151 E-score. For ATGAATTA, the binding signal was 0.353 E-score. AAGACTTA gave a binding signal of -0.0188 E-score. For AGTGTTAA, the binding signal was 0.0921 E-score. Sequence CAGTAAAA has a binding signal of 0.264 E-score. TGTATGAA showed a binding signal of 0.0597 E-score. In the case of ACCCCCTA, the binding signal is reported as -0.351 E-score. ATCCTGCC was tested, and the binding signal was -0.0728 E-score. Work on AGAACGCA yielded a binding signal of -0.0343 E-score. ACCAACTC was tested, and the binding signal was 0.0787 E-score. In the case of AGTTTCGC, the binding signal is reported as 0.0913 E-score. For CACATGTG, the binding signal was -0.211 E-score. GCTAGAGC showed a binding signal of -0.185 E-score. In the case of CAAACGCG, the binding signal is reported as -0.243 E-score. CTATTCAA was tested, and the binding signal was 0.0979 E-score. Work on CATGTAGG yielded a binding signal of 0.116 E-score. Work on ACCGCCAC yielded a binding signal of -0.135 E-score. CCGGAACC showed a binding signal of -0.266 E-score. Work on GCTACACA yielded a binding signal of 0.0448 E-score. For AAAGTCTT, the binding signal was -0.0777 E-score. CTTATAGC showed a binding signal of 0.186 E-score. For CAGTGCCG, the binding signal was -0.272 E-score. For CGATGACA, the binding signal was 0.0223 E-score. In the case of AAGTGGAC, the binding signal is reported as -0.18 E-score. In the case of GGCGGAAA, the binding signal is reported as -0.055 E-score. ACATGCAG was tested, and the binding signal was -0.0307 E-score. Sequence AAACATCA has a binding signal of 0.0364 E-score. For CGACGGAG, the binding signal was -0.199 E-score. GATTTATA gave a binding signal of 0.315 E-score. CTTAGAAC showed a binding signal of 0.0504 E-score. For GCCCTGCC, the binding signal was -0.341 E-score. GGAACCTA gave a binding signal of -0.0327 E-score. AGAGATCA showed a binding signal of -0.186 E-score. With AAGGCAAC the binding signal was -0.135 E-score. In the case of ACACCTTC, the binding signal is reported as -0.0521 E-score. GCCAGTTA gave a binding signal of 0.163 E-score. Work on GAATACGA yielded a binding signal of 0.0974 E-score. TAACTGGA gave a binding signal of 0.213 E-score. CTCGGGCA showed a binding signal of -0.192 E-score. Sequence CACAAACA has a binding signal of 0.0611 E-score. TCGCACGA showed a binding signal of -0.0828 E-score. AGTCCGAG gave a binding signal of -0.252 E-score. CATGGTCA gave a binding signal of -0.1 E-score. In the case of ACTGCGCG, the binding signal is reported as -0.2 E-score. For ACTGGAAT, the binding signal was 0.144 E-score. AAGTTGAG gave a binding signal of -0.123 E-score. In the case of CGAAGGAA, the binding signal is reported as -0.109 E-score. In the case of AATTATGG, the binding signal is reported as 0.312 E-score. In the case of GATCAACA, the binding signal is reported as -0.0993 E-score. For CGCCCAGA, the binding signal was -0.254 E-score. CGAGAACC gave a binding signal of -0.23 E-score. Sequence CCAGGTAA has a binding signal of -0.00946 E-score. In the case of CACCTCAG, the binding signal is reported as -0.42 E-score. With CACTGTAA the binding signal was 0.0774 E-score. Work on ATGTCTCG yielded a binding signal of -0.0514 E-score. For AACTCGCA, the binding signal was 0.123 E-score. ATCCTCAT was tested, and the binding signal was -0.00517 E-score. Work on GGCTTTAA yielded a binding signal of -0.215 E-score. GGCCAGTA was tested, and the binding signal was -0.181 E-score. With GCTGAGGA the binding signal was -0.0798 E-score. AGTCGGCC gave a binding signal of -0.156 E-score. With AGACACAA the binding signal was -0.0824 E-score. CATAGTTC was tested, and the binding signal was 0.138 E-score. GACTTGCC was tested, and the binding signal was 0.0372 E-score. With CAGCAGGC the binding signal was -0.256 E-score. AATCAGTG showed a binding signal of 0.128 E-score. With CGTGGAGA the binding signal was 0.119 E-score. Work on GATTATTA yielded a binding signal of 0.174 E-score. AACGGTCG showed a binding signal of -0.0798 E-score. ACGAGCTA gave a binding signal of -0.107 E-score. ACATTAAT gave a binding signal of 0.245 E-score. ATGATTTG was tested, and the binding signal was -0.123 E-score. Sequence CGTGCCAG has a binding signal of -0.0803 E-score. For AAGCGCCA, the binding signal was -0.231 E-score. Sequence AGCTAGTA has a binding signal of 0.373 E-score. In the case of ACGTCAGC, the binding signal is reported as -0.0909 E-score. AGACGAGA was tested, and the binding signal was 0.0192 E-score. Work on CTTCCGTA yielded a binding signal of -0.109 E-score. AATGTACT showed a binding signal of 0.303 E-score. In the case of ATATATGA, the binding signal is reported as 0.287 E-score. Sequence AAGATTGG has a binding signal of 0.126 E-score. In the case of GAATGCGA, the binding signal is reported as 0.0795 E-score. AGTTCGAT gave a binding signal of 0.189 E-score. Work on ACACGATA yielded a binding signal of 0.0986 E-score. Work on GCCACGAC yielded a binding signal of -0.171 E-score. CGGCTGGA showed a binding signal of -0.202 E-score. Sequence AGACATTC has a binding signal of 0.0202 E-score. Sequence CGGCTCCA has a binding signal of -0.34 E-score. In the case of GAAGACTC, the binding signal is reported as -0.114 E-score. For AAGCAGAG, the binding signal was -0.194 E-score. With AAACCGAC the binding signal was 0.0208 E-score. GTCCCCAC showed a binding signal of -0.264 E-score. For TGTTAACA, the binding signal was 0.207 E-score. With ATGGACAG the binding signal was -0.0031 E-score. In the case of ATCGACTG, the binding signal is reported as -0.0208 E-score. For AAACGCTC, the binding signal was -0.122 E-score. For CTCGAGTA, the binding signal was 0.0734 E-score. Work on AATCGAAT yielded a binding signal of 0.0416 E-score. Work on AAGCACTC yielded a binding signal of -0.264 E-score. Work on AGGCATCG yielded a binding signal of 0.00217 E-score. Sequence CAACCCTC has a binding signal of -0.209 E-score. Work on CCGCACCC yielded a binding signal of -0.317 E-score. AGTCGACT gave a binding signal of -0.00311 E-score. For ACTTTAAA, the binding signal was 0.242 E-score. CTGCTCCC was tested, and the binding signal was -0.265 E-score. With TCCGGGAA the binding signal was -0.26 E-score. For CCCGTCTA, the binding signal was -0.29 E-score. In the case of GCCGCCCA, the binding signal is reported as -0.198 E-score. In the case of TTCGCAAA, the binding signal is reported as 0.157 E-score. GAGCCTTA was tested, and the binding signal was -0.0793 E-score. For ACGCTTTC, the binding signal was -0.258 E-score. Sequence AACAACGA has a binding signal of 0.0652 E-score. TATCAGGA was tested, and the binding signal was 0.139 E-score. CCACGGGC was tested, and the binding signal was -0.215 E-score. In the case of GCCCTGCA, the binding signal is reported as -0.216 E-score. In the case of AGAACCGG, the binding signal is reported as -0.204 E-score. Work on ACTTAACC yielded a binding signal of 0.121 E-score. With ACCCGTCC the binding signal was -0.177 E-score. ACAGCAGC showed a binding signal of -0.00981 E-score. Work on AGGGGCTG yielded a binding signal of -0.483 E-score. For CATGGCGG, the binding signal was -0.227 E-score. With CGCCAGTA the binding signal was -0.111 E-score. ATCCGTCC was tested, and the binding signal was -0.178 E-score. For AGCGCTAT, the binding signal was -0.0624 E-score. CCACAGCC was tested, and the binding signal was -0.217 E-score. In the case of AGTGCACG, the binding signal is reported as -0.0534 E-score. With CTTGCTAC the binding signal was -0.05 E-score. In the case of CGGTATAC, the binding signal is reported as 0.0441 E-score. CCCCGGTA gave a binding signal of -0.0467 E-score. AAGCCGCT gave a binding signal of -0.00361 E-score. Sequence AAATATCA has a binding signal of 0.271 E-score. In the case of AATCGCGC, the binding signal is reported as 0.205 E-score. CCTTCAAG showed a binding signal of -0.258 E-score. AGGGCCTA gave a binding signal of -0.298 E-score. AGGTTTAG was tested, and the binding signal was 0.0105 E-score. CATTTGAG was tested, and the binding signal was 0.0304 E-score. In the case of ACTTTTTG, the binding signal is reported as -0.213 E-score. With CCCCGTCG the binding signal was -0.379 E-score. ACGCATGA gave a binding signal of -0.0569 E-score. TACAACGA gave a binding signal of 0.203 E-score. Work on GACGCGGC yielded a binding signal of -0.33 E-score. Work on AATTGACA yielded a binding signal of 0.0528 E-score. In the case of GTTGGCCA, the binding signal is reported as -0.0562 E-score. With AATACGGT the binding signal was 0.222 E-score. Work on GATCCGGA yielded a binding signal of 0.154 E-score. GAAGGGTC gave a binding signal of -0.33 E-score. Work on CCTGCGAC yielded a binding signal of -0.25 E-score. For CCGCGCAA, the binding signal was -0.141 E-score. With AATTGCTG the binding signal was 0.22 E-score. With TCGTGAAA the binding signal was 0.103 E-score. Sequence AGCGATTA has a binding signal of 0.109 E-score.
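Further: rank score from −0.5 (least bound) to 0.5 (best bound).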
